ChEMBL document CHEMBL1201862, “PubChem BioAssay data set” (2004)
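Interpolation was linear, between the two tested concentrations surrounding the appropriate level; five concentrations were tested over 48 hours in 96-well plates. Abbreviation: GI50, concentration required for 50% inhibition of growth.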 Activity calls are given as the source filed them. Rule as the data show it: active = GI50 up to about 1.1 µM and inactive = higher.

tested on: NCI-H322M; assay: DTP human tumour cell line panel, 48 h

Structure (SMILES)	GI50
CCC(=O)N(O)C(C)(C)C	inactive: > 100 µM
CCN(CCCN(CC)C(=O)Nc1ccccc1)C(=O)Nc1ccccc1	inactive: > 100 µM
C=CCN1C(=O)/C(=C/c2ccccc2)N=C1SC1OC(COC(C)=O)C(OC(C)=O)C(OC(C)=O)C1OC(C)=O (stereo not given)	inactive: 17.6 µM
CCCCN(CCCC)CC(C(=O)Nc1ccc([N+](=O)[O-])cc1[N+](=O)[O-])/C(C)=N\NC(=S)NN (stereo not given)	inactive: > 100 µM
COc1cccc(-c2nc(-c3cnccn3)n(Cc3ccccc3)n2)c1	inactive: > 100 µM
NS(=O)(=O)c1cc(Cl)c(NC(=S)NC(=O)Nc2ccc(Cl)c(Cl)c2)c(Cl)c1	inactive: 85.3 µM
C/C(=C/CC[C@](C)(OC1OC(CO)C(O)C(O)C1O)[C@H]1CC[C@]2(C)[C@@H]1CC[C@@H]1[C@@]3(C)CC[C@H](O)C(C)(C)[C@@H]3C[C@H](O)[C@]12CO)CO (stereo not given in full)	inactive: > 100 µM
CSc1nncc(-c2cc3c(c(SC)n2)CCCC3)n1	inactive: > 100 µM
COC(=O)CNC(=O)CCSc1nnc(COc2ccc(Cl)cc2)n1-c1ccccc1	inactive: 23 µM
COC(=O)c1c(O)ccc(O)c1C(C(C)=O)C(C)=O	inactive: > 100 µM
CCNC(=O)c1cc(Cl)ccc1NC(=O)C12CC3CC(CC(C3)C1)C2	inactive: 25.6 µM
[N-]=[N+]=NC(c1cn(C2CC(O)C(CO)O2)c(=O)[nH]c1=O)C(Cl)I (stereo not given)	inactive: > 100 µM
Cc1cccc(C)c1NC(=O)/C(Cc1nc2ccc([N+](=O)[O-])cc2nc1O)=N\NC(N)=O	inactive: 90.8 µM
COc1cc(CCc2ccc(N)cc2)cc(OC)c1OC	inactive: > 100 µM
O=C(O)[C@@H]1OCCOCCO[C@@H](C(=O)O)[C@H](C(=O)O)OCCOCCO[C@H]1C(=O)O	inactive: > 100 µM
Cc1cccc(NC(=S)N/N=C2\C(=O)Nc3ccccc32)c1	inactive: > 100 µM
OC[P+](CO)(CO)C12CC3CC(CC(C3)C1)C2	inactive: > 100 µM
CC(C)(C)C(C#N)(C#N)c1ccc(C(C#N)(C#N)C(C)(C)C)nn1	inactive: > 100 µM
Oc1cc(Br)cc2cccnc12	inactive: 7.73 µM
CCOC(=O)c1nc2ccc(C(F)(F)F)cc2nc1Oc1cc(OC)c(OC)c(OC)c1	inactive: 72.6 µM
c1ccc(C2=NN3CN(N2)c2ccccc2OCCCOc2ccccc23)cc1	inactive: > 100 µM
CCc1ccc(/C(C)=N/NC(N)=S)cc1	inactive: > 100 µM

Structure (SMILES)	GI50
CC(=O)c1cc2ccccc2[n+]([O-])c1N	inactive: > 100 µM
CC(C)N(CCCNc1c2ccccc2nc2cccc([N+](=O)[O-])c12)C(C)C	active: 0.0285 µM
CSCCC(N)P(C)(=O)O (stereo not given)	inactive: > 100 µM
COc1ccc(CCNC(=O)Cc2cc(OC)c(OC)cc2CO)cc1OC	inactive: > 100 µM
N#CC1(C#N)C2CCCCC23OC(=N)C1(C#N)C(c1ccccc1)O3 (stereo not given)	inactive: 61.9 µM
O=C(O)c1ccc(NS(=O)(=O)Cc2ccccc2)cc1	inactive: > 100 µM
Nc1cc2c(C3OC(CO)C(O)C3O)n[nH]c2c(=S)[nH]1 (stereo not given)	inactive: > 100 µM
COc1cc(/C=N/n2c(-c3ccccc3)nn(C(C)=O)c2=O)cc(OC)c1OC	inactive: 1.87 µM
CCCCC(=O)Oc1ccc2c(C)cc(=O)oc2c1	inactive: > 100 µM
COc1ccc(NC(C)=O)cc1N1C(=O)/C(=C\c2cc(OC)c(OC)c(OC)c2)SC1c1ccccc1 (stereo not given)	inactive: 78.7 µM
NN=C(CC(O)(C(F)(F)Cl)C(F)(F)Cl)CC(O)(C(F)(F)Cl)C(F)(F)Cl	inactive: 6.01 µM
O=C(Nc1cccc(NC(=O)C(=O)C2CCC3=C(Sc4ccccc4N3)C2=O)n1)C(=O)C1CCC2=C(Sc3ccccc3N2)C1=O (stereo not given)	inactive: > 100 µM
Cc1cccc2c(N)c3cccc(C(=O)NCC[N+]4(Cc5ccc([N+](=O)[O-])cc5)CCOCC4)c3nc12	inactive: 41.7 µM
COc1ccccc1NC(=O)C1=C(C)NC(C)=C(C(=O)Nc2ccccc2OC)C1/C=C/c1ccccc1	inactive: > 100 µM
CC1CCC2(C)C(CC=C(C=O)C2(O)C=O)C12CO2 (stereo not given)	inactive: 4.34 µM
Cn1c(CC(O)c2nc3ccccc3n2C)nc2ccccc21 (stereo not given)	inactive: > 36.8 µM
COC(=O)C1=C(O)C(C(=O)OC)[C@]2(O)[C@H](C(=O)OC)[C@H]1C[C@@H](c1ccc(F)cc1)[C@H]2C(=O)OC (stereo not given in full)	inactive: 14.1 µM
N#CCCN(CCC#N)CCN(CCN(CCC#N)CCC#N)CCN(CCC#N)CCC#N	inactive: > 100 µM
CC(C)C1OC(/C=C/c2ccccc2)OCC1(C)C (stereo not given)	inactive: 38.1 µM
CCCCCCCC(=O)OC[C@@H](C[As](=O)(O)O)OC(=O)CCCCCCC	inactive: 13.8 µM
CC[C@@]1(O)C(=O)OCc2c1cc1n(c2=O)Cc2c-1nc1ccccc1c2/C=N\NC(=O)C(N)CCSC (stereo not given in full)	active: 0.38 µM
O=C1N(CN2CCOCC2)CN(CN2CCOCC2)C(=O)N1Cc1ccc(CN2C(=O)N(CN3CCOCC3)CN(CN3CCOCC3)C2=O)cc1	inactive: > 100 µM

Structure (SMILES)	GI50
CN=[S+]([O-])(c1ccccc1)c1ccccc1	inactive: > 100 µM
CC(C)C/N=C(\N)N=C(N)N	inactive: > 100 µM
CC1=CC(C)C(O)C(C)/C=C\C(O)C/C=C(/C)C(=O)CC(O)C(C)\C=C/C=C\C=C/C(=O)NC2=C(O)C(=O)c3c(cc(C)c(O)c3C1=O)C2=O (stereo not given)	inactive: > 100 µM
Cc1ccc2c(c1)C1(C)OC(C=CC1=O)O2 (stereo not given)	inactive: 5.16 µM
CC(=O)OC1C[C@H]2C(OC(=O)c3ccccc3)C3C4(OC(C)=O)COC4C[C@H](OC(C)=O)[C@@]3(C)C(OC(C)=O)[C@H](OC(C)=O)C(=C1C)C2(C)C (stereo not given in full)	inactive: > 100 µM
Cc1ccc(NC(=S)NNC(=O)c2cc(-c3ccccc3)nc3ccccc23)cc1	inactive: 14 µM
O=C(N/C=C/C=C/Sc1ccccc1)OCc1ccccc1	inactive: 19.9 µM
N=c1ccn2c(n1)OC1C(OP(=O)(O)O)C(CO)OC12 (stereo not given)	inactive: > 66.2 µM
CCCN(CCC)c1c([N+](=O)[O-])cc(C(=O)N(CC)CC)cc1[N+](=O)[O-]	inactive: 41.8 µM
CCCC1N2CCCCC2[C@@H]2c3[nH]c4ccccc4c3CCN12 (stereo not given in full)	inactive: > 100 µM
CC1=CC2=C(C(N)=O)C(=O)OC2(C)C(c2ccccc2)C1 (stereo not given)	inactive: > 100 µM
C/C(CC(=O)Nc1ccc(C)cc1)=N\NC(N)=S	inactive: > 100 µM
O=C(O)[C@@H]1CCS(=O)(=O)N1	inactive: > 100 µM
C(=C/CCCN1O[C@@H](CCCCCCCCc2cccnc2)[C@H]2CCC[C@H]21)/CCCCCCCCCc1cccnc1	inactive: 16.3 µM
OCC1OC(n2cnc3c(Cl)nc(Nc4ccccc4)nc32)CC1O (stereo not given)	inactive: 94.4 µM
Cc1cc2c(cc1C)NC(=O)C(NC(=O)/C=C/c1ccccc1)C=N2 (stereo not given)	inactive: > 100 µM
NC(CCCNCc1ccccc1)C(=O)O (stereo not given)	inactive: > 100 µM
Cc1ccc(NC(=O)C2C(=O)N(c3ccc(C)c(C)c3)C(=O)/C2=N\NC(N)=S)cc1C (stereo not given)	inactive: > 100 µM
NC1CSc2ccccc2NC1=O (stereo not given)	inactive: > 100 µM
CC(C)c1cc(C(C)C)c(Cl)c(Cl)c1O.CC(C)c1cc(Cl)c(O)c(C(C)C)c1Cl	inactive: 37.8 µM
C=C(C)C1CC/C(C)=C/CC[C@]2(C)O[C@H]2CC/C(COC(C)=O)=C\[C@@H]1O (stereo not given in full)	inactive: 18 µM
